A collection of fitness landscapes (doi:10.1016/j.celrep.2020.107928)
Whole data set: some 81,000 sequences, median “one-hybrid fitness for binding NBS DNA” near -0.1, cut for the highest 2% near 0.36. The list shows a part of the results.

B1: Caulobacter ParB omega fusion; a variant is named by its letters at X, in order, B8GW30 (parent)
chain: MESVVVGEPGMSEGRRGLGRGLSALLGEVDAAPAQAPGEQLGGSREAPIEILQRNPDQPRRTFREEDLEDLSNSIREKGVLQPILVRPSPDTAGEYQIVAGERAWRAAQRAGLKTVPIMVRELDDLAVLEIGIIENVQRADLNVLEEALSYKVLMEKFERTQENIAQTIGKSXSHVANXMRLLXLPDEVQSYLVSGELTAXHARAIAAAADPVALAKQIIEGGLSVRETEALARKAPNLSAGKSKGGRPPRVKDTDTQALESDLSSVLGLDVSIDHRGSTGTLTITYATLEQLDDLCNRLTRGI

Variants of: B1
Experiment: one-hybrid fitness for binding NBS DNA (the Noc-binding site; scaled: cognate 1, non-cognate 0); higher = stronger binding
Conditions: with NBS DNA site
Summary of the method: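 In E. coli USO, a HIS3 reporter with its site placed 19 bp from the promoter was used to select Caulobacter ParB variants randomised at four specificity codons. Growth lasted 48 hours at 37°C on histidine-free M9 containing 0.1 mM IPTG and 5 mM 3-AT. Fitness was taken as the log change in variant-to-wild-type read ratio from Illumina sequencing of pre- and post-selection plasmids, rescaled between the non-cognate and cognate sites.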

Variant | one-hybrid fitness for binding NBS DNA
QFWG | ≤ 0.2
YQQR | ≤ 0.2
SQRT | ≤ 0.2
TLAA | ≤ 0.2
MPDQ | ≤ 0.2
CMCG | ≤ 0.2
MFQS | ≤ 0.2
YMYS | ≤ 0.2
APGA | ≤ 0.2
VYHG | ≤ 0.2
DKCG | ≤ 0.2
IPQK | ≤ 0.2
NLIS | ≤ 0.2
QAGA | 0.221
PIVT | ≤ 0.2
WAAW | ≤ 0.2
HAPM | ≤ 0.2
TCIT | ≤ 0.2
VGVG | ≤ 0.2
NNNN | ≤ 0.2
HRWL | ≤ 0.2
DQSP | ≤ 0.2
YENR | ≤ 0.2
MTMS | ≤ 0.2
DGEN | ≤ 0.2
KQET | ≤ 0.2

Variant | one-hybrid fitness for binding NBS DNA
HRSL | ≤ 0.2
MCAN | ≤ 0.2
PANC | ≤ 0.2
CNVW | ≤ 0.2
NASR | ≤ 0.2
DDNE | ≤ 0.2
RTAM | ≤ 0.2
RHTI | ≤ 0.2
LQVL | ≤ 0.2
PPIN | ≤ 0.2
ITTS | ≤ 0.2
HKHV | ≤ 0.2
SVPW | ≤ 0.2
QCPD | ≤ 0.2
PTGW | ≤ 0.2
TAST | ≤ 0.2
WLCC | ≤ 0.2
GPEV | ≤ 0.2
MARK | ≤ 0.2
DTQA | ≤ 0.2
ENDK | ≤ 0.2
RTHS | 0.54
AWIV | ≤ 0.2
MAVS | ≤ 0.2
NPDS | ≤ 0.2
VLTM | ≤ 0.2

Variant | one-hybrid fitness for binding NBS DNA
SRTI | ≤ 0.2
TFVM | ≤ 0.2
LMFS | ≤ 0.2
LDPM | ≤ 0.2
GHWT | ≤ 0.2
MPPI | ≤ 0.2
QYVV | ≤ 0.2
AGVS | ≤ 0.2
ARKQ | ≤ 0.2
TRYD | ≤ 0.2
MYSG | ≤ 0.2
WSHA | ≤ 0.2
KGLI | ≤ 0.2
AVYL | ≤ 0.2
QTVE | ≤ 0.2
VNTC | ≤ 0.2
PPYI | ≤ 0.2
QLEF | ≤ 0.2
NCYV | ≤ 0.2
QYNL | ≤ 0.2
ECDG | ≤ 0.2
VWNM | ≤ 0.2
SIGS | ≤ 0.2
RTGI | ≤ 0.2
GRMR | ≤ 0.2
GPWG | ≤ 0.2

Variant | one-hybrid fitness for binding NBS DNA
KHNS | ≤ 0.2
PNAE | ≤ 0.2
ARPT | ≤ 0.2
ADDS | ≤ 0.2
NNIP | ≤ 0.2
FWLT | ≤ 0.2
TMVS | ≤ 0.2
PARG | ≤ 0.2
FPLF | ≤ 0.2
EAHC | ≤ 0.2
PWHT | ≤ 0.2
DTSM | ≤ 0.2
RDDT | ≤ 0.2
QMEM | ≤ 0.2
TDPA | ≤ 0.2
ARGY | ≤ 0.2
LMGI | ≤ 0.2
GEDW | ≤ 0.2
IRMT | ≤ 0.2
HNSC | ≤ 0.2
SWRR | ≤ 0.2
GSAI | ≤ 0.2
SVRL | ≤ 0.2
CSCC | ≤ 0.2
QGQC | ≤ 0.2
RFDG | ≤ 0.2

Variant | one-hybrid fitness for binding NBS DNA
PPVQ | ≤ 0.2
AGTE | ≤ 0.2
NEHR | ≤ 0.2
PNNH | ≤ 0.2
EKQP | ≤ 0.2
RFFD | ≤ 0.2
THSY | ≤ 0.2
LTFM | ≤ 0.2
ALMG | ≤ 0.2
RVQD | ≤ 0.2
TRHA | ≤ 0.2
SMKS | ≤ 0.2
YAIC | ≤ 0.2
RRWF | ≤ 0.2
VRGY | ≤ 0.2
AHDF | ≤ 0.2
DSSV | ≤ 0.2
LHST | ≤ 0.2
HVPC | ≤ 0.2
YQKN | ≤ 0.2
PDQH | ≤ 0.2
PQNP | ≤ 0.2
AATT | ≤ 0.2
DMKS | ≤ 0.2
DTQK | ≤ 0.2
NRKT | 0.213

Variant | one-hybrid fitness for binding NBS DNA
MPTI | ≤ 0.2
WKSG | ≤ 0.2
LPHV | ≤ 0.2
PSNR | ≤ 0.2
DIFR | ≤ 0.2
SDSC | ≤ 0.2
AHQV | ≤ 0.2
RGSG | ≤ 0.2
ITGC | ≤ 0.2
AARV | ≤ 0.2
QVYT | 0.268
IEPF | ≤ 0.2
SRSM | ≤ 0.2
CRPY | ≤ 0.2
LSAA | ≤ 0.2
DHGK | ≤ 0.2
DPVR | ≤ 0.2
LRIF | ≤ 0.2
RKIS | 0.403
AHHT | ≤ 0.2
SETL | ≤ 0.2
AWSF | ≤ 0.2
IITM | ≤ 0.2
